# Test results: the supplement of paper PMC12355420
# Structures can show the parent of a compound that is named as a salt. This is one part of the list. Many values rest on one well or one pass, so single values are uncertain.
# Test system: HeLa VPS33A reporter cells
# Test: relative cell viability (CellMask signal) vs DMSO (fraction of DMSO); HeLa model of a glycosaminoglycan (GAG) storage disease; KI is knock-in and KO knock-out; SDC1 is syndecan 1; higher = less cytotoxic
# Conditions: 50 µM; 24 h
# 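Note: primary screen of an FDA-approved drug library in HeLa reporter cells in 96-well format, CellMask signal normalized to DMSO-treated wells set as 1, under 0.5 deemed highly cytotoxic.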
row,SMILES,relative cell viability
1,Nc1nc2c(ncn2COC(CO)CO)c(=O)[nH]1 [Ganciclovir],0.957
2,Clc1cccc(Cl)c1NC1=NCCN1 [Clonidine HCl],1.31
3,Cc1ccc(O)c([C@H](CCN(C(C)C)C(C)C)c2ccccc2)c1 [Tolterodine tartrate],0.976
4,CNC(=O)c1ccccc1Sc1ccc2c(/C=C/c3ccccn3)n[nH]c2c1,1.32
5,C=C1[C@H](CO)[C@@H](O)C[C@@H]1n1cnc2c(=O)[nH]c(N)nc21 [Entecavir Hydrate],1.14
6,O=c1sn(-c2cccc3ccccc23)c(=O)n1Cc1ccccc1 [Tideglusib],1.25
7,NC[C@H]1O[C@H](O[C@H]2[C@H](O)[C@@H](O[C@H]3O[C@H](CO)[C@@H](O)[C@H](N)[C@H]3O)[C@H](N)C[C@@H]2N)[C@H](N)C[C@@H]1O [Tobramycin],1.14
8,Cc1cccn2c(=O)c(-c3nnn[nH]3)cnc12 [Pemirolast potassium],1.13
9,COc1cc(C(=O)NS(=O)(=O)c2ccccc2C)ccc1Cc1cn(C)c2ccc(NC(=O)OC3CCCC3)cc12 [Zafirlukast],0.904
10,O=C(O)c1cc(=O)c2ccccc2o1 [Chromocarb],1.02
11,CC[C@H]1OC(=O)C[C@@H](O)[C@H](C)[C@@H](O[C@@H]2O[C@H](C)[C@@H](O)[C@H](N(C)C)[C@H]2O)[C@@H](CCN2C[C@H](C)C[C@H](C)C2)C[C@@H](C)C(=O)/C=C/C(C)=C/[C@@H]1CO[C@@H]1O[C@H](C)[C@@H](O)[C@@H](OC)[C@H]1OC [Tilmicosin],1.09
12,CCCc1ncc(C[n+]2ccccc2C)c(N)n1 [Amprolium HCl],1.09
13,CCCN1CCCC[C@H]1C(=O)Nc1c(C)cccc1C [Ropivacaine HCl],1.08
14,CCCN[C@H]1CCc2nc(N)sc2C1 [Pramipexole dihydrochloride],0.997
15,CCn1cc(C(=O)O)c(=O)c2cc(F)c(N3CCNC(C)C3)c(F)c21 (stereo not given) [Lomefloxacin HCl],0.873
16,Cc1ncc([N+](=O)[O-])n1CC(O)CCl (stereo not given) [Ornidazole],1.13
17,O=C(CCCCCCNC(=O)c1cnc(N(c2ccccc2)c2ccccc2)nc1)NO [Rocilinostat (ACY-1215)],0.926
18,CNCCc1ccccn1 [Betahistine 2HCl],1.2
19,O=C(NS(=O)(=O)c1ccc(Br)s1)c1ccc(Cl)cc1Cl [Tasisulam],1.12
20,C[N+](C)(C)CCOP(=O)([O-])OC[C@H](O)CO [sn-Glycero-3-phosphocholine],1.22

row,SMILES,relative cell viability
1,O=C(O[C@@H]1Cc2c(O)cc(O)cc2O[C@@H]1c1ccc(O)c(O)c1)c1cc(O)c(O)c(O)c1 [(-)-epicatechin gallate],1.1
2,O=S(=O)(O)Oc1ccc(C(c2ccc(OS(=O)(=O)O)cc2)c2ccccn2)cc1 [Sodium Picosulfate],0.974
3,CC[C@H]1OC(=O)[C@H](C)[C@@H](O[C@H]2C[C@@](C)(OC)[C@@H](O)[C@H](C)O2)[C@H](C)[C@@H](O[C@@H]2O[C@H](C)C[C@H](N(C)C)[C@H]2O)[C@](C)(O)C[C@@H](C)CN(C)[C@H](C)[C@@H](O)[C@]1(C)O [Azithromycin Dihydrate],1.02
4,CC(C)[C@H](N)C(=O)OCC(CO)OCn1cnc2c(=O)[nH]c(N)nc21 (stereo not given in full) [Valganciclovir HCl],1.08
5,O=C(O)[C@H]1OC(O)[C@H](O)[C@@H](O)[C@@H]1O (mixture of isomers) [glucuronate],1.06
6,Cc1cc(/C=C/C#N)cc(C)c1Nc1ccnc(Nc2ccc(C#N)cc2)n1 [Rilpivirine],1.19
7,O=C(O)CC(O)(CC(=O)O)C(=O)O [Citric acid],1.13
8,Nc1c2c(nc3ccccc13)CCCC2 [Tacrine hydrochloride],1.01
9,NC(=O)[C@@H]1CC[C@@H]2CN1C(=O)N2OS(=O)(=O)O [Avibactam sodium],1.07
10,C[C@@H]1O[C@@H](OC[C@H]2O[C@@H](Oc3c(-c4ccc(O)c(O)c4)oc4cc(O)cc(O)c4c3=O)[C@H](O)[C@@H](O)[C@@H]2O)[C@H](O)[C@H](O)[C@H]1O [Rutin],1.06
11,O=c1ccc2ccccc2o1 [Coumarin],1.04
12,CC(C(=O)O)c1ccc(-c2ccccc2)c(F)c1 (stereo not given) [Flurbiprofen],1.07
13,O=C(O)[C@H]1O[C@@H](Oc2cc3oc(-c4ccc(O)cc4)cc(=O)c3c(O)c2O)[C@H](O)[C@@H](O)[C@@H]1O [Scutellarin],1.02
14,O=c1n(CCCN2CCN(c3cccc(Cl)c3)CC2)nc2ccccn12 [Trazodone HCl],1.06
15,COc1c2ccoc2cc2oc(=O)ccc12 [5-Methoxypsoralen],1.02
16,O=C(O)[C@H](O)c1ccccc1 [R-(-)-Mandelic Acid],1.13
17,COc1ccc([C@H]2CNC(=O)C2)cc1OC1CCCC1 [S- (+)-Rolipram],0.976
18,NS(=O)(=O)c1cc2c(cc1Cl)N=CNS2(=O)=O [Chlorothiazide],1.25
19,CC(=O)Oc1cc(C(F)(F)F)ccc1C(=O)O [Triflusal],0.969
20,O=C(O)CCCC[C@@H]1SC[C@@H]2NC(=O)N[C@@H]21 [Biotin],1.54
